Results as given in article PMC4336329 (PLoS ONE, 2015).
Out of some 310,000 compounds screened, about 14,000 (4.5%) showed an effect of 50% or more. The effect is printed as a negative number. The list shows a part of the results.

Target: human ether-à-go-go-related gene (hERG) potassium channel (human, UniProt Q12809)
Assay: primary screen, population patch clamp on CHO cells stably expressing hERG
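Also: peak tail current of the secondary pulse compared with the same well before compound.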

Sequence of human ether-à-go-go-related gene (hERG) potassium channel (Q12809 whole entry, looked up): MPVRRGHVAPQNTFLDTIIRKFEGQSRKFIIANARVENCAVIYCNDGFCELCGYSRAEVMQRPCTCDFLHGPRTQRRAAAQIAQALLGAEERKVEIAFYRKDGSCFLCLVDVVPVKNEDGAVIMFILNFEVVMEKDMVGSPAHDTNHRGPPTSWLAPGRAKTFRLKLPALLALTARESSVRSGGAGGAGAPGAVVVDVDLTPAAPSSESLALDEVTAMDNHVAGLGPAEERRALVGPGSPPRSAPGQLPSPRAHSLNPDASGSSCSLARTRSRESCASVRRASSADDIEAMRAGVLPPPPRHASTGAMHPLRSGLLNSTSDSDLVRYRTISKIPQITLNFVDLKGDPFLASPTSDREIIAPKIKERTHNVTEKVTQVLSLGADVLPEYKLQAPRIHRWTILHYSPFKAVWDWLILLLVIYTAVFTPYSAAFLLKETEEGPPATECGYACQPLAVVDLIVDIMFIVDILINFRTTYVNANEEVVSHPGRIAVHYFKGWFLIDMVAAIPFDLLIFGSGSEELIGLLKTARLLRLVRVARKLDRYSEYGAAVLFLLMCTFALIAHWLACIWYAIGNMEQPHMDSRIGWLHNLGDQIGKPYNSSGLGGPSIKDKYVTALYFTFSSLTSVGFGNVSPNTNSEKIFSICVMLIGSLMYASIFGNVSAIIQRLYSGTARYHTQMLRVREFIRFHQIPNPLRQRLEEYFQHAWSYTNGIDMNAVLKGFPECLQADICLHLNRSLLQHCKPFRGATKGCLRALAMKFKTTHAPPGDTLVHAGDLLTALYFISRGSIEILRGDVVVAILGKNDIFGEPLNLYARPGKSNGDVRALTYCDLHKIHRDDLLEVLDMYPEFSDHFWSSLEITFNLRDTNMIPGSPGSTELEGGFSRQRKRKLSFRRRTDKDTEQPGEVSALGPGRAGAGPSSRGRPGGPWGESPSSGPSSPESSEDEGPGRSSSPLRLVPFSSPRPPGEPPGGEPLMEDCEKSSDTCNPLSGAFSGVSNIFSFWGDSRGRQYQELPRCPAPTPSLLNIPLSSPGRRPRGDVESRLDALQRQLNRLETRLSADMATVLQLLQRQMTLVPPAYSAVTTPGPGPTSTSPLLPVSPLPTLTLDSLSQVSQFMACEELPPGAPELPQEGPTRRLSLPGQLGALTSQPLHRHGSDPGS

In order of rising “hERG current change (%, negative = inhibition) at 10uM” value:
1. COc1ccc(CN(C(=O)CN2C(=O)NC3(CCC(C)CC3)C2=O)C(C)Cc2cccs2)cc1 (stereo not shown)  -68.7%
2. CC(C)(C)c1csc(NC(=O)c2c(F)c(F)c(F)c(F)c2F)n1  -63.9%
3. CSc1ccc(/C=N/NC(=O)CN2CCN(Cc3ccc(C)cc3)CC2)cc1  -63.2%
4. COc1ccc(CCNC(=O)C2CC(c3ccc([N+](=O)[O-])cc3)=NO2)cc1 (stereo not shown)  -61.6%
5. Cc1ccc(C[n+]2cc(-c3ccc(Cl)cc3)n3c2CCC3)cc1.[Cl-]  -51.3%
6. CCOc1ccccc1C(=O)N1CCC(n2nnc3cc(C)ccc32)CC1  -47.4%
7. O=C(CNC(=O)c1cccc(F)c1)N/N=C/c1ccc([N+](=O)[O-])s1  -31.1%
8. O=C(c1ccc(COc2ccccc2[N+](=O)[O-])o1)N1CCCCC1  -25.7%
9. COc1ccc(C(=O)Nc2c3c(nn2-c2cccc(Cl)c2)CS(=O)C3)cc1 (stereo not shown)  -25.6%
10. Cc1c(N/C(=N/S(=O)(=O)c2cc([N+](=O)[O-])ccc2Cl)c2ccccc2)c(=O)n(-c2ccccc2)n1C  -22%
11. Cc1c(C(=O)Nc2ccc(S(=O)(=O)NCC3CCCO3)cc2)cccc1[N+](=O)[O-] (stereo not shown)  -20.3%
12. CC(=O)c1c(NCCc2ccccc2)cc(C)oc1=O  -18%
13. COc1ccc(C(=O)NCc2ccncc2)cc1S(=O)(=O)NCc1ccc(Cl)cc1  -16.4%
14. N#Cc1cc(C#N)c(N2CCN(c3ccccn3)CC2)nc1N  -15.7%
15. CCN(Cc1ccccc1)C1CCN(Cc2ccccc2)CC1  -14.9%
16. CC1CCN(S(=O)(=O)c2ccc(NC(=O)CN3CCOCC3)cc2)CC1  -13.9%
17. Cc1ccccc1N1CCN(Cc2ccc(Br)o2)CC1  -13.7%
18. Cc1ccc(-n2nc3ccc(NC(=O)c4ccco4)cc3n2)cc1  -12.4%
19. CN(c1ccc(C(=O)N2CCc3ccccc3C2)cc1)S(C)(=O)=O  -12.4%
20. N#CCc1ccc(NS(=O)(=O)c2cccs2)cc1  -11.5%
21. Cc1[nH]c2ccccc2c1C(=O)C(=O)N1CC=C(c2ccccc2)CC1  -11.3%
22. CCCN(CCC)CCCNC(=O)C1CCC(CNS(=O)(=O)c2cccc3nsnc23)CC1 (stereo not shown)  -10.1%
23. Cc1cccc(NC(=O)COC(=O)c2ccc(C)c(S(=O)(=O)N3CCCCC3)c2)c1  -9.99%
24. O=C(CN1c2ccccc2Sc2ccccc21)N/N=C/c1ccc(Cl)cc1  -9.59%
25. COCCNC(=O)C(c1cccs1)N(Cc1ccccc1)C(=O)Cn1nnc2ccccc21 (stereo not shown)  -8.87%
26. CC(=O)NC(c1cccc([N+](=O)[O-])c1)c1c(OC(C)=O)ccc2ccccc12 (stereo not shown)  -7.72%
27. Cc1ccc(NC(=O)COC(=O)Cc2c[nH]c3ccccc23)cc1C  -7.15%
28. COc1ccccc1C(=O)Nc1ccc2c(c1)CN(C(=O)CSC)CC2  -5.94%
29. Cc1ccnc(N2C(=O)c3ccccc3C2Nc2ccc3c(c2)OCCO3)c1 (stereo not shown)  -5.75%
30. O=c1oc2c(CN3CCN(CCO)CC3)c(O)ccc2cc1-c1ccccn1  -5.42%
31. COc1ccc(C(C)=O)cc1COC(=O)CNC(=O)c1ccc(F)cc1  -4.66%
32. Cc1nnc(SCC(=O)NNC(=O)COc2ccc(Cl)cc2)s1  -3.91%
33. NCCCC[C@H]1CN=C(N)N1CCCCC1CCCCC1  -3.84%
34. CC1(C)Oc2ccc(C#N)cc2[C@@H](N2CCCC2=O)[C@@H]1O  -3.29%
35. NC(=O)c1nsc(C(=O)N(c2ccccc2F)C(C(=O)NCc2ccc(F)cc2)c2ccc(O)cc2)c1N (stereo not shown)  -2.97%
36. CC(C)c1ccccc1-n1c(SCc2cc(=O)oc3ccc4ccccc4c23)nnc1-c1cccnc1  -2.39%
37. CC1CC2(CC(C)(C(=O)CSc3nc4ccccc4s3)OC2=O)C(=O)O1 (stereo not shown)  -1.16%
38. CSc1nc2n(n1)C(c1cccc(F)c1)C(C(=O)Nc1ccc(C)cc1C)=C(C)N2 (stereo not shown)  -0.769%
39. COc1ccccc1C(=O)NC(C)C(c1cccs1)N1CCN(C)CC1 (stereo not shown)  -0.154%
40. CC1CC(C)CN(c2oc(-c3ccco3)nc2C#N)C1 (stereo not shown)  0.193%
41. CCOc1ccc(N(CC(=O)NCc2ccc(OC)cc2)S(=O)(=O)c2c(C)noc2C)cc1  0.901%
42. CC(C)C1CC(C(=O)Nc2ccccc2)C(=O)O1 (stereo not shown)  1.05%
43. Cc1ccc(C)c(N2CCN(C(=O)CCn3c(=S)[nH]c4cc5c(cc4c3=O)OCO5)CC2)c1  1.11%
44. CC(C)(C)NC(=O)C(c1ccco1)N(Cc1ccc2c(c1)OCO2)C(=O)Cn1nnc2ccccc21 (stereo not shown)  1.72%
45. N#Cc1ccc(NC(=O)CCc2nc3ccccc3s2)cc1  1.87%
46. COc1cccc(N2CC(=O)Nc3c(oc4nc(-c5ccccc5)cc(C)c34)C2=O)c1  1.92%
47. COC(=O)CSc1nsc(SCC(=O)OC)n1  2.1%
48. CC(C)N=C(NS(=O)(=O)NC(=O)c1ccccc1)c1ccccc1  2.42%
49. NC(=O)c1nsc(C(=O)N(c2cccc(O)c2)C(C(=O)NC2CCCC2)c2ccc(Cl)cc2)c1N (stereo not shown)  2.73%
50. COc1ccc(N2CCN(C(=O)c3cccc(S(=O)(=O)N4CCOCC4)c3)CC2)cc1  3.68%
51. CCOc1cccc(OCCOCCNC(C)(C)C)c1.O=C(O)C(=O)O  3.71%
52. CC(C(c1cccs1)c1c(N)n(C)c(=O)n(C)c1=O)[N+](=O)[O-] (stereo not shown)  4.02%
53. CC1=C(C)CC(C(=O)Nc2nc(-c3ccc(C)cc3C)c(C)s2)C(C(=O)O)C1 (stereo not shown)  4.6%
54. Cc1cc(S(=O)(=O)Nc2cccc(O)c2)c(C)s1  4.94%
55. CCc1ccc2c(CN3CCc4ccccc43)cc(=O)oc2c1  5.25%
56. C[C@H](NC(=O)CCCn1nnc2ccccc2c1=O)C(=O)O  5.74%
57. CCOc1cc(N2CCOCC2)c(OCC)cc1NC(=O)COc1cccc2cccnc12  6.14%
58. CCc1ccc2oc(C(=O)Nc3cccnc3)c(C)c2c1  6.64%
59. CC(=O)N/C(=C/c1ccc2c(c1)OCO2)C(=O)NCC(=O)O  7.09%
60. COc1ccc(-c2sc3cc(OC)c(OC)cc3c2C#CCCO)cc1  7.26%
61. CCc1ccc2nc(N(CCN(C)C)C(=O)/C=C/c3cccs3)sc2c1.Cl  7.53%
62. COc1ccc(C2/C=C\CN(S(=O)(=O)/C=C/c3ccccc3)[C@H](Cc3ccccc3)C(=O)N2Cc2ccc(F)cc2)cc1 (stereo partly shown)  8.05%
63. CC1(C)CC(=O)C2=C(C1)N1CCCCC1CC2=O (stereo not shown)  8.13%
64. COc1cc(NC(=O)COC(=O)/C=C/c2ccccc2Cl)cc(OC)c1  9.31%
65. O=C1CC(NS(=O)(=O)c2cccnc2)CN1c1cccc(F)c1 (stereo not shown)  9.51%
66. c1ccc(-c2ncnc3nc4n(c23)CCC4)cc1  10.3%
67. Cc1ccc(-n2c(CNc3ccc(F)cc3)nnc2SCC(=O)O)cc1  11.2%
68. COc1ccc(S(=O)(=O)NCCc2c[nH]c3ccccc23)cc1OC  11.4%
69. Cc1ccc2c(c1)nnn2C1CCN(CC(=O)N(c2ccccc2)c2ccccc2)CC1  11.4%
70. COc1ccccc1/C=N/OC(=O)c1ccc(C)cc1  12.6%
71. O=C(CN1C(=O)c2ccccc2S1(=O)=O)NCc1ccc(F)cc1  13.4%
72. Cn1c(=O)n(CC(=O)O)c(=O)c2c1nc1n2CCCN1CCc1ccccc1  13.6%
73. O=C(O)CCCCCNc1nc(=S)[nH]c2ccccc12  16%
74. COc1ccc(CCN=Cc2c(C)[nH]n(-c3ccc([N+](=O)[O-])cc3)c2=O)cc1OC  16.4%
75. O=C(O)CS(=O)(=O)c1ccc(C(F)(F)F)cn1  16.8%
76. COc1ccccc1OCC(=O)Nc1ccc(S(=O)(=O)N(C)c2ccccc2)cc1  17.8%
77. CCOC(=O)NC(=O)/C(C#N)=N\Nc1cccc(Cl)c1  17.9%
78. O=S(=O)(Nc1ccc(-c2ccc3nncn3n2)cc1)c1cccc(F)c1  18.1%
79. CC1CCN(S(=O)(=O)c2ccc(C(C)C)cc2)CC1  18.3%
80. COc1ccc(S(=O)(=O)N(CC(=O)Nc2ccc3c(c2)OCO3)c2ccccc2OC)cc1  18.5%
81. CCN1C(=O)/C(=C\N(C)C)NC1=S  19%
82. COc1ccc(Br)cc1C1CC(=O)C(C)C(c2cc(Br)ccc2OC)N1 (stereo not shown)  19.5%
83. COc1ccccc1CNC(=O)N1CCN(S(=O)(=O)c2ccc(Cl)cc2)CC1  20.7%
84. O=C(NC(=S)NNC(=O)c1ccco1)c1ccccc1  21.8%
85. CO[C@H]1O[C@H](C)[C@@H](O)C[C@H]1NC(=O)OCc1ccccc1  22.6%
